Test results from the supplement of paper PMC7826260.
The list shows a part of the results. Each Rep nickase domain was tested in vitro on the same pool of single strands for 1 h at 37 °C with 3 µM enzyme; only the middle of the 90-letter strands is printed. Values are log2 of uncut reads against the no-enzyme pool; uncut sequences lie near 0, cut ones below; no hit call is given. Shares of all reads are compared; values above 0 arise when much of the pool is cut.

Each sequence was assayed on T1, Rep nickase domain of maize striate mosaic virus (assay: uncleaved DNA left, log2 of reads against the no-enzyme library (log2 ratio); higher = less cleavage (more negative = more Rep cleavage of the k-mer); sequences stand for … in CTCGTCCG…ACCGGAGA).
T1 sequence (protein, residues 1-117, tag omitted): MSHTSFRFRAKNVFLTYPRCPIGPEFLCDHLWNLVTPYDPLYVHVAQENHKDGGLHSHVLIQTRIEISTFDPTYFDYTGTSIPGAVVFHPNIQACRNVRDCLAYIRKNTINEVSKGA
Description: (§1)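 A pool of 90-nt single-stranded DNAs with seven random bases just before the constant AC of the nick site (name = the seven bases) was cut by 3 µM recombinant His6-SUMO-tagged Rep nickase domain (300 nM DNA, 50 mM HEPES pH 8.0, 50 mM NaCl, 1 mM MnCl2, 1 h, 37 °C, three replicates). Uncut DNA was amplified and sequenced.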

Row | Sequence | uncleaved DNA left (log2)
1 | AAGCCGA | -0.845
2 | ACCGTAT | -0.476
3 | GCCTTGA | -0.44
4 | GACTGTG | -1.04
5 | CCATACT | -1.37
6 | TAGTGGT | 0.784
7 | TAATGAA | -0.883
8 | TTCGCGT | -0.993
9 | TTAATTA | 0.0544
10 | TCATACT | -1.54
11 | ATTCTCG | -1.12
12 | TAAGGGT | 1.71
13 | GCTCTAT | 0.404
14 | TGCTTCT | -0.568
15 | GATGAGT | -0.212
16 | ATATCAC | -0.794
17 | ATGATTC | -0.91
18 | ATTTACG | -1.14
19 | TAACTGC | -0.457
20 | ATTATTT | -0.753

Row | Sequence | uncleaved DNA left (log2)
21 | TTAATTG | -1.12
22 | CTCGCTA | -0.832
23 | CGGTTAC | 0.378
24 | AACGCCT | -0.128
25 | CCGCGCG | -0.485
26 | CCCAGAC | -0.187
27 | AGTCCGC | -0.787
28 | CAGCGGT | 0.0722
29 | CTGCTAT | -0.559
30 | AGCCTTA | 0.487
31 | TTCCGGT | 1.44
32 | ACATAGG | -1.07
33 | AACGATG | 1.36
34 | CTATACT | -1.81
35 | ATGGTGA | -0.418
36 | CGCGTCA | -0.323
37 | AACAATT | -0.899
38 | GAACTGT | 1.17
39 | GACAGAG | -0.679
40 | GACGTGA | 0.378

These sequences were tested on T2, Rep nickase domain of porcine circovirus 2 in the same assay as above.
T2 sequence (protein, residues 2-116, tag omitted): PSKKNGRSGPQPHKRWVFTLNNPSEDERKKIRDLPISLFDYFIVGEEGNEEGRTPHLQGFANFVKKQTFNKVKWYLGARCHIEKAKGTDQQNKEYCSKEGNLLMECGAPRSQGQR
Description: as §1

Row | Sequence | uncleaved DNA left (log2)
41 | AAGCCGA | 0.00377
42 | ACCGTAT | -0.000429
43 | GCCTTGA | -0.0725
44 | GACTGTG | 0.121
45 | CCATACT | -3.54
46 | TAGTGGT | -3.84
47 | TAATGAA | -2.03
48 | TTCGCGT | 0.104
49 | TTAATTA | -0.0592
50 | TCATACT | -3.91
51 | ATTCTCG | 0.0767
52 | TAAGGGT | -0.0281
53 | GCTCTAT | -0.0236
54 | TGCTTCT | -2.61
55 | GATGAGT | 0.109
56 | ATATCAC | 0.0989
57 | ATGATTC | 0.0705
58 | ATTTACG | 0.204
59 | TAACTGC | 0.0492
60 | ATTATTT | -3.45

Row | Sequence | uncleaved DNA left (log2)
61 | TTAATTG | 0.112
62 | CTCGCTA | 0.0243
63 | CGGTTAC | 0.0184
64 | AACGCCT | -0.263
65 | CCGCGCG | 0.1
66 | CCCAGAC | 0.156
67 | AGTCCGC | -0.0904
68 | CAGCGGT | -0.493
69 | CTGCTAT | 0.134
70 | AGCCTTA | -0.52
71 | TTCCGGT | 0.017
72 | ACATAGG | 0.204
73 | AACGATG | 0.0503
74 | CTATACT | -3.86
75 | ATGGTGA | 0.204
76 | CGCGTCA | 0.0615
77 | AACAATT | -3.77
78 | GAACTGT | -0.0175
79 | GACAGAG | 0.067
80 | GACGTGA | 0.0242

The sequences below were run on T3, Rep nickase domain of tomato golden mosaic virus in the same assay as above.
T3 sequence (protein, residues 1-124, tag omitted): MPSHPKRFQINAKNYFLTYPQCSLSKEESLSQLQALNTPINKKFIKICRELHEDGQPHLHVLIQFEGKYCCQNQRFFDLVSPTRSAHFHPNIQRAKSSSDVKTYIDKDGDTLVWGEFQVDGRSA
Description: as §1

Row | Sequence | uncleaved DNA left (log2)
81 | AAGCCGA | 0.0281
82 | ACCGTAT | 0.0589
83 | GCCTTGA | -0.0836
84 | GACTGTG | -0.069
85 | CCATACT | -0.578
86 | TAGTGGT | -0.142
87 | TAATGAA | -0.714
88 | TTCGCGT | -0.0769
89 | TTAATTA | 0.0538
90 | TCATACT | -0.855
91 | ATTCTCG | -0.0349
92 | TAAGGGT | 0.102
93 | GCTCTAT | 0.0427
94 | TGCTTCT | -0.236
95 | GATGAGT | 0.226
96 | ATATCAC | 0.0796
97 | ATGATTC | -0.0965
98 | ATTTACG | -0.0738
99 | TAACTGC | -0.141
100 | ATTATTT | 0.0498

Row | Sequence | uncleaved DNA left (log2)
101 | TTAATTG | -0.0928
102 | CTCGCTA | 0.246
103 | CGGTTAC | -0.13
104 | AACGCCT | 0.0792
105 | CCGCGCG | -0.0919
106 | CCCAGAC | 0.0243
107 | AGTCCGC | -0.0468
108 | CAGCGGT | -0.113
109 | CTGCTAT | 0.0318
110 | AGCCTTA | 0.0205
111 | TTCCGGT | -0.0425
112 | ACATAGG | 0.0351
113 | AACGATG | 0.152
114 | CTATACT | -2.35
115 | ATGGTGA | 0.146
116 | CGCGTCA | 0.106
117 | AACAATT | -0.12
118 | GAACTGT | 0.0276
119 | GACAGAG | 0.0254
120 | GACGTGA | -0.0945

These sequences were tested on T4, Rep nickase domain of tomato yellow leaf curl virus in the same assay as above.
T4 sequence (protein, residues 1-136, tag omitted): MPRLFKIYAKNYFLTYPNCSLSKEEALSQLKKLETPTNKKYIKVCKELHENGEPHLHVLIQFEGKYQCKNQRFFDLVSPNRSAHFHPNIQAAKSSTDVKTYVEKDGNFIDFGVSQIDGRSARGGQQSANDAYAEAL
Description: as §1

Row | Sequence | uncleaved DNA left (log2)
121 | AAGCCGA | -0.0844
122 | ACCGTAT | -0.165
123 | GCCTTGA | -0.101
124 | GACTGTG | 0.116
125 | CCATACT | 0.00654
126 | TAGTGGT | 0.0446
127 | TAATGAA | -0.0243
128 | TTCGCGT | 0.0626
129 | TTAATTA | 0.0858
130 | TCATACT | 0.0644
131 | ATTCTCG | -0.0118
132 | TAAGGGT | -0.0885
133 | GCTCTAT | -0.085
134 | TGCTTCT | -0.138
135 | GATGAGT | 0.168
136 | ATATCAC | 0.0961
137 | ATGATTC | -0.165
138 | ATTTACG | -0.109
139 | TAACTGC | -0.0995
140 | ATTATTT | -0.0238

Row | Sequence | uncleaved DNA left (log2)
141 | TTAATTG | -0.000283
142 | CTCGCTA | 0.0993
143 | CGGTTAC | -0.121
144 | AACGCCT | 0.0178
145 | CCGCGCG | -0.07
146 | CCCAGAC | -0.134
147 | AGTCCGC | 0.0302
148 | CAGCGGT | -0.228
149 | CTGCTAT | 0.263
150 | AGCCTTA | -0.00241
151 | TTCCGGT | -0.127
152 | ACATAGG | 0.00821
153 | AACGATG | -0.0538
154 | CTATACT | -0.0385
155 | ATGGTGA | 0.0532
156 | CGCGTCA | -0.0223
157 | AACAATT | -0.132
158 | GAACTGT | -0.0307
159 | GACAGAG | -0.014
160 | GACGTGA | -0.124

These sequences were tested on T5, Rep nickase domain of wheat dwarf virus in the same assay as above.
T5 sequence (protein, residues 1-137, tag omitted): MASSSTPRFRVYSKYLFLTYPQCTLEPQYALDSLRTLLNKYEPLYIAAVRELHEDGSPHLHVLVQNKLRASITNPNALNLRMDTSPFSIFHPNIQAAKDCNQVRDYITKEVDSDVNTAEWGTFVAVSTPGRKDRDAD
Description: as §1

Row | Sequence | uncleaved DNA left (log2)
161 | AAGCCGA | -0.0119
162 | ACCGTAT | -0.151
163 | GCCTTGA | -0.112
164 | GACTGTG | -0.0403
165 | CCATACT | -0.381
166 | TAGTGGT | -0.0681
167 | TAATGAA | -1.36
168 | TTCGCGT | -0.0474
169 | TTAATTA | 0.118
170 | TCATACT | -0.914
171 | ATTCTCG | -0.0287
172 | TAAGGGT | -0.0296
173 | GCTCTAT | -0.0196
174 | TGCTTCT | -0.194
175 | GATGAGT | 0.0552
176 | ATATCAC | 0.0872
177 | ATGATTC | -0.0508
178 | ATTTACG | -0.143
179 | TAACTGC | -0.0369
180 | ATTATTT | -0.144

Row | Sequence | uncleaved DNA left (log2)
181 | TTAATTG | -0.0744
182 | CTCGCTA | 0.137
183 | CGGTTAC | -0.121
184 | AACGCCT | 0.0621
185 | CCGCGCG | -0.0397
186 | CCCAGAC | -0.0198
187 | AGTCCGC | -0.0368
188 | CAGCGGT | -0.243
189 | CTGCTAT | 0.08
190 | AGCCTTA | 0.125
191 | TTCCGGT | -0.13
192 | ACATAGG | -0.0218
193 | AACGATG | -0.0329
194 | CTATACT | -1.66
195 | ATGGTGA | -0.003
196 | CGCGTCA | -0.0532
197 | AACAATT | -0.19
198 | GAACTGT | 0.153
199 | GACAGAG | -0.0831
200 | GACGTGA | -0.0977
